Several values for one entry are separate records, joined by “and”; a condition that tells them apart may be missing. Equal values may be shown once. Where a name gives a salt, the structure may show the parent alone. About 50 (3%) of roughly 1,800 compounds showed activity. The list shows a part of the results.
The molecules below were run on mouse p16Ink4a+/- lung fibroblasts (INKBRITE, bleomycin-injured) (assay: percentage of GFP+ (p16Ink4a+) fibroblasts among all cells in well; higher = less depletion of p16Ink4a+ cells, active = 20 or less). Conditions: 1 µM; 3 days.
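Further: fibroblasts sorted 14 days after bleomycin, GFP+ and GFP− mixed 1:1 in 384-well plates (GFP− as in-well control), imaged after Hoechst and NucView530 staining, reference wells lacked compound.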

Structure (SMILES) | percentage of GFP+
CN(C)CCCN1c2ccccc2CCc2ccc(Cl)cc21 [Clomipramine] | inactive: 45%
CC(C)n1cnc2c(NCCc3ccc(O)cc3)nc(-c3csc4ccccc34)nc21 [StemRegenin 1] | inactive: 46.4%
CC/C(=C(/CC)c1ccc(O)cc1)c1ccc(O)cc1 [Diethylstilbestrol] | inactive: 38.5%
CC1(C)Cc2c(-c3ccccc3)c(-c3ccc(Cl)cc3)c(CC(=O)O)n2C1 [Licofelone] | inactive: 52.2%
CCC(=O)O[C@]1(C(=O)CCl)[C@@H](C)C[C@H]2[C@@H]3C[C@H](F)C4=CC(=O)C=C[C@]4(C)[C@@]3(F)[C@@H](O)C[C@@]21C [Halobetasol Propionate] | inactive: 43.7%
Cc1cccc(C)c1OCC(C)N (centres undefined) [Mexiletine] | inactive: 46%
COc1ccc2c(c1)C(=O)N(CCc1ccc(S(=O)(=O)NC(=O)NC3CCCCC3)cc1)C(=O)C2(C)C [Gliquidone] | inactive: 42.7%
O=c1c(O)c(-c2ccc(O)c(O)c2)oc2cc(O)cc(O)c12 [Quercetin] | inactive: 34.7% and inactive: 42.2%
CCCc1cc(C)nc(O)c1CNC(=O)c1cc(-c2ccc(N3CCN(C(C)C)CC3)nc2)cc2c1cnn2C(C)C | inactive: 39.6%
COc1cc(F)c(C(C)C)cc1-c1ccc(C(F)(F)F)cc1CN1C(=O)O[C@H](c2cc(C(F)(F)F)cc(C(F)(F)F)c2)[C@@H]1C [Anacetrapib] | inactive: 44.7%
CC(C)(C#N)c1ccc(N2C(=O)OCc3cnc4ccc(-c5cnc6ccccc6c5)cc4c32)cc1 | inactive: 39%
CCS(=O)(=O)N1CC(CC#N)(n2cc(-c3ncnc4[nH]ccc34)cn2)C1 [Baricitinib] | inactive: 55.6%
Nc1ncnc2[nH]cnc12 [Adenine] | inactive: 37.5%
C[N+](C)(C)C[C@H](O)CC(=O)O [L-carnitine] | inactive: 39.4%
CCOC(CN1CCN(CC(C)C(=O)c2ccccc2)CC1)c1ccccc1 (centres undefined) [Eprazinone] | inactive: 41.7%
CO[C@@H]1[C@@H](O[C@H]2O[C@@H](C)[C@H](O[C@@H]3C[C@](C)(O)[C@H](O)[C@@H](C)O3)[C@@H](N(C)C)[C@@H]2O)[C@@H](CC=O)C[C@@H](C)[C@@H](O[C@H]2CC[C@H](N(C)C)[C@H](C)O2)/C=C/C=C/C[C@@H](C)OC(=O)C[C@H]1O [Spiramycin] | inactive: 35.8%
Cc1cc(OCc2nnc(SC3CCCC3)n2-c2cccnc2)ccc1-c1ccc(S(C)(=O)=O)cc1 | inactive: 28.6%
Cc1cnc(C(=O)O)c[n+]1[O-] [Acipimox] | inactive: 36%
O=C1NC(=O)/C(=C\c2ccc(-c3ccc(F)cc3)o2)S1 | inactive: 52.3%
CC(C)Oc1ccc2c(=O)c(-c3ccccc3)coc2c1 [Ipriflavone] | inactive: 41.7%
CN[C@H](CC(=O)O)C(=O)O [N-methyl-d-aspartic Acid] | inactive: 45.9%
O=C(N/N=C/c1ccc([N+](=O)[O-])o1)c1ccc(O)cc1 [Nifuroxazide] | inactive: 48.3%
O=C(c1ccc(Nc2nccc(-c3cc4ccccc4s3)n2)cc1)N1CCC(N2CCCC2)CC1 [IKK-16 (IKK Inhibitor VII)] | inactive: 22.3%

Structure (SMILES) | percentage of GFP+
CNC(=O)CN(CCN(CCN(CC(=O)O)CC(=O)NC)CC(=O)O)CC(=O)O [Omniscan, Gadodiamide hydrate] | inactive: 35.9%
CCOC(=O)[C@H](CCc1ccccc1)N[C@H]1CS[C@H](c2cccs2)CN(CC(=O)O)C1=O [Temocapril] | inactive: 45.2%
O=S(=O)(O)NC1CCCCC1 [Cyclamic Acid] | inactive: 42.8%
COc1ccc(O)cc1 [Mequinol] | inactive: 56.1%
C[C@@H]1C[C@H]2[C@@H]3CCC4=CC(=O)C=C[C@]4(C)[C@@]3(Cl)[C@@H](O)C[C@]2(C)[C@@]1(OC(=O)c1ccco1)C(=O)CCl [Mometasone Furoate] | inactive: 37.2%
Cc1cc2c(s1)Nc1ccccc1N=C2N1CCN(C)CC1 [Olanzapine] | inactive: 48.3%
COc1ccccc1N1CCN(CCCNc2cc(=O)n(C)c(=O)n2C)CC1 [Urapidil Hydrochloride] | inactive: 47.4%
CC(C)c1cc(C(C)C)c(CC(=O)NS(=O)(=O)Oc2c(C(C)C)cccc2C(C)C)c(C(C)C)c1 [Avasimibe] | inactive: 53.1%
O=C(Nc1cc2cc[nH]c2cn1)c1ccccc1 | inactive: 41.5%
COc1ccc2cc([C@H](C)C(=O)O)ccc2c1 [Naproxen] | inactive: 40.7%
c1ccc(-c2[nH]ncc2-c2ccnc3ccccc23)nc1 [4-(3-Pyridin-2-Yl-1h-Pyrazol-4-Yl)Quinoline] | inactive: 49.8%
CC[C@H](C)C(=O)O[C@H]1C[C@@H](C)C=C2C=C[C@H](C)[C@H](CC[C@@H]3C[C@@H](O)CC(=O)O3)[C@H]21 [Lovastatin] | inactive: 33.8%
N#C[C@@H]1C[C@@H]2C[C@@H]2N1C(=O)[C@@H](N)C12CC3CC(CC(O)(C3)C1)C2 [Saxagliptin] | inactive: 46.3%
CCCCN1CCCCC1C(=O)Nc1c(C)cccc1C (centres undefined) [Bupivacaine] | inactive: 42.9%
CC(C)[C@H](N)C(=O)OCC(CO)OCN1C=NC2C(=O)NC(N)=NC21 (some centres undefined) [Valganciclovir HCl] | inactive: 50.2%
Cc1ccc(Cl)cc1N(CC(=O)Nc1c(F)cccc1F)S(C)(=O)=O | inactive: 43.1%
O=C1NC(=O)/C(=C/c2cccc(C(F)(F)F)c2)S1 | inactive: 46.2%
O=Nc1c(-c2c(O)[nH]c3cc(Br)ccc23)[nH]c2ccccc12 [(3e)-6'-Bromo-2,3'-Biindole-2',3(1h,1'h)-Dione 3-Oxime] | inactive: 42.5%
CC(=O)Nc1nc(C)c(-c2ccc(Cl)c(S(=O)(=O)NCCO)c2)s1 | inactive: 30.1%
CC(=O)C1=C(O)C=C2Oc3c(C(C)=O)c(O)c(C)c(O)c3[C@]2(C)C1=O [(+)-Usniacin] | inactive: 45.5%
C#Cc1cccc(Nc2ncnc3cc4c(cc23)OCCOCCOCCO4)c1 [Icotinib] | inactive: 52.7%
CC(C)C[C@@H](C(=O)N[C@H](C(=O)OC1CCCC1)c1ccccc1)[C@H](O)C(=O)NO [Tosedostat] | inactive: 44.6%
Cc1nnc(C(C)C)n1C1CC2CCC(C1)N2CC[C@H](NC(=O)C1CCC(F)(F)CC1)c1ccccc1 (some centres undefined) [Maraviroc] | inactive: 35.4%

Structure (SMILES) | percentage of GFP+
Cn1c(N2CCCCS2(=O)=O)nc(C(=O)NCc2ccc(F)cc2)c(O)c1=O | inactive: 26.4%
NC(Cc1c[nH]c2ccc(O)cc12)C(=O)O (centres undefined) [5-hydroxytryptophan (5-HTP)] | inactive: 41.1%
COC1=C(OC)C(=O)C(CCCCCCCCCCO)=C(C)C1=O [Idebenone] | inactive: 43.7%
C[C@H](N[C@@H](CCc1ccccc1)C(=O)O)C(=O)N1CCC[C@H]1C(=O)O [Enalaprilat] | inactive: 36.7%
CCc1ccc(OCc2ccccc2C(=O)Nc2ccc3nc(C)cc(N)c3c2)cc1 | inactive: 51.7%
CO/C(O)=C1\C(C)=NC(C)=C(C(=O)OCCN(C)Cc2ccccc2)C1c1cccc([N+](=O)[O-])c1 (centres undefined) [Nicardipine] | inactive: 50.2%
O=C1CC(=O)c2c(Cl)c(Cl)c(Cl)c(Cl)c21 | inactive: 39.4%
CC(C)NCC(O)COc1ccc(CCOCC2CC2)cc1 (centres undefined) [Betaxolol] | inactive: 50.1%
CC1(C)CCC(C)(C)c2cc(NC(=O)c3ccc(C(=O)O)cc3)ccc21 [Tamibarotene] | inactive: 28.2%
CC(=O)NC[C@H]1CN(c2ccc(N3CCOCC3)c(F)c2)C(=O)O1 [Linezolid] | inactive: 52.5%
CN(C)C(=O)Nc1cccc(-c2ccc(N(C)C)cc2)c1 [Atglistatin] | inactive: 48.3%
CC(=O)Nc1ccc(NC(=S)NC(=O)c2ccc(C(C)(C)C)cc2)cc1 [Tenovin-1] | inactive: 52.2%
Cc1cn([C@H]2O[C@@H](CO)[C@H](O)[C@H]2F)c(=O)[nH]c1=O [Clevudine] | inactive: 43.3%
O=c1ncn2nc(Sc3ccc(F)cc3F)ccc2c1-c1c(Cl)cccc1Cl | inactive: 44.8%
CC[C@H](/C=C/[C@@H](C)[C@@H]1CC[C@H]2[C@@H]3CC=C4C[C@@H](O)CC[C@]4(C)[C@@H]3CC[C@@]21C)C(C)C [Stigmasterol] | inactive: 44.8%
O=C(O)c1cn(-c2ccc(F)cc2)c2cc(N3CCNCC3)c(F)cc2c1=O [Sarafloxacin] | inactive: 31.1%
CCCCCCCCCCCCCCCC[n+]1ccn(Cc2ccccc2)c1C | inactive: 29.6%
c1ccc(-c2ccc(C(c3ccccc3)n3ccnc3)cc2)cc1 (centres undefined) [Bifonazole] | inactive: 38.8%
O=S(=O)(c1cccc2cnccc12)N1CCCNCC1 [Fasudil Hydrochloride] | inactive: 48.7%
Nc1nc(O)c2ncn(COC(CO)CO)c2n1 [Ganciclovir] | inactive: 38.1%
Cc1cc(O)c2c(c1)C(=O)c1cccc(O)c1C2=O [Chrysophanol] | inactive: 47.4%
C=C[C@]1(C)C[C@@H](OC(=O)CSC(C)(C)CNC(=O)[C@H](N)C(C)C)[C@]2(C)[C@H](C)CC[C@]3(CCC(=O)[C@H]32)[C@@H](C)[C@@H]1O [Valnemulin HCl] | inactive: 54.6%
CC(=O)Nc1cccc(-n2c(=O)n(C3CC3)c(=O)c3c(Nc4ccc(I)cc4F)n(C)c(=O)c(C)c32)c1 [Trametinib] | inactive: 27.8%

Source: the supplement of paper PMC11060735
